This is one part of the list. Rule as the data show it: active = 3.2 or more and inactive = the rest. The signal is at background level for most entries.
B1: RET_Y806_V804M (peptide)
chain: LLIMEYAKYGS
B2: PUM3_Y259_YF (peptide)
chain: IVEFAYNDKAI
B3: RBM47_Y541_YF (peptide)
chain: IFGASYVPFAA
B4: GELS_HUMAN_86 (peptide)
chain: VPVPTNLYGDFFTGD
B5: RANBP2_Y785 (peptide)
chain: PSPTRYSLSPS
B6: PTS_Y128 (peptide)
chain: PVGVLYKVKVY
B7: RET_Y981_M980T (peptide)
chain: CSEETYRLMLQ
B8: RASGRP2_Y378 (peptide)
chain: TEDELYQLSLQ
B9: RAB3C_Y110 (peptide)
chain: GFILMYDITNE
B10: PYGM_Y204 (peptide)
chain: LPVHFYGHVEH
B11: GELS_HUMAN_465_YA (peptide)
chain: VPVDPATYGQFAGGD
B12: PTS_Y128_V124L (peptide)
chain: PLGVLYKVKVY
B13: RBM10_Y48_R46H (peptide)
chain: SYPHEYGSQEG
B14: PTS_Y128_K129E (peptide)
chain: PVGVLYEVKVY
B15: RBM4_Y361 (peptide)
chain: ADRARYSAFGG
B16: RAC3_Y64_A59G (peptide)
chain: GGQEDYDRLRP
B17: RAB18_Y202 (peptide)
chain: GACGGYCSVLG
B18: RET_Y687_S690P (peptide)
chain: AFPVSYSSPGA
B19: RBM10_Y44 (peptide)
chain: MDYRSYPREYG

What follows are binders tested against SHP2 C-SH2 domain E139D (assay: enrichment score (SH2-bound / input frequency) (ratio); bacterial display of known human phosphotyrosine sites (pTyr-Var adds point mutants) read by sequencing; higher = stronger binding; tyrosines were phosphorylated by kinases first). Settings: peptide library: pTyr-Var.
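Also: displayed peptides selected on beads carrying the immobilized SH2 domain, with library peptides lacking any tyrosine serving as negative controls.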

Enrichment score, inactive:
B1 2.7, B2 0.576, B3 1.13, B5 0.651, B6 0.846, B7 0.836, B8 0.564, B9 1.82, B10 1.29, B12 0.632, B13 0.716, B14 1.39, B15 0.637, B16 0.538, B17 0.797, B18 0.741, B19 0.814

The binders below were run against SHP2 C-SH2 domain wild-type in the same assay as above. Settings: peptide library: pTyr-Var.

Enrichment score, inactive:
B1 3.04, B2 0.657, B3 0.902, B5 0.45, B6 0.967, B7 0.793, B8 0.654, B9 1.87, B10 1.51, B12 0.987, B13 0.582, B14 1.38, B15 0.566, B16 0.535, B17 0.773, B18 0.779, B19 0.682

Each binder was assayed against SHP2 N-SH2 domain L43F in the same assay as above. Settings: peptide library: pTyr-Var.

Enrichment score, inactive:
B1 2.89, B2 0.549, B3 1.2, B5 0.48, B6 1.01, B7 1.13, B8 0.811, B9 2.54, B10 1.28, B12 0.777, B13 0.511, B14 1.52, B15 0.601, B16 0.481, B17 0.784, B18 0.683, B19 0.685

The binders below were run against SHP2 N-SH2 domain T42A in the same assay as above. Settings: peptide library: pTyr-Var.

Enrichment score, inactive:
B1 2.82, B2 0.531, B3 1.31, B5 0.538, B6 0.593, B7 0.777, B8 0.417, B9 1.63, B10 1.45, B12 0.958, B13 0.621, B14 0.956, B15 0.44, B16 0.467, B17 0.8, B18 0.605, B19 0.606

Each binder was assayed against SHP2 N-SH2 domain T52S in the same assay as above. Settings: peptide library: pTyr-Var.

Enrichment score, inactive:
B1 2.82, B2 0.63, B3 1.18, B5 0.591, B6 0.643, B7 0.734, B8 0.691, B9 2.74, B10 1.64, B12 0.561, B13 0.543, B14 1.56, B15 0.565, B16 0.457, B17 0.881, B18 0.861, B19 0.611

These binders were tested against SHP2 N-SH2 domain wild-type in the same assay as above. Settings: peptide library: pTyr-Var.

Enrichment score, inactive:
B1 2.42, B2 0.615, B3 0.981, B5 0.558, B6 0.748, B7 0.858, B8 0.684, B9 1.55, B10 1.64, B12 1.14, B13 0.596, B14 1.79, B15 0.699, B16 0.643, B17 0.608, B18 0.804, B19 0.889

What follows are binders tested against SHP2 C-SH2 domain E139D in the same assay as above. Settings: peptide library: Human pTyr.

Enrichment score, inactive:
B4 0.608, B11 0.583

Each binder was assayed against SHP2 C-SH2 domain wild-type in the same assay as above. Settings: peptide library: Human pTyr.

Enrichment score, inactive:
B4 0.609, B11 0.636

Each binder was assayed against SHP2 N-SH2 domain L43F in the same assay as above. Settings: peptide library: Human pTyr.

Enrichment score, inactive:
B4 0.663, B11 0.514

The binders below were run against SHP2 N-SH2 domain T42A in the same assay as above. Settings: peptide library: Human pTyr.

Enrichment score, inactive:
B4 0.649, B11 0.552

These binders were tested against SHP2 N-SH2 domain T52S in the same assay as above. Settings: peptide library: Human pTyr.

Enrichment score, inactive:
B4 0.667, B11 0.62

What follows are binders tested against SHP2 N-SH2 domain wild-type in the same assay as above. Settings: peptide library: Human pTyr.

Enrichment score, inactive:
B4 0.647, B11 0.567

From the supplement of paper PMC10369915
